PubChem BioAssay AID1030 (National Center for Advancing Translational Sciences (NCATS), 2008)
Values joined by “and” are separate entries in the source; they are usually repeats but may differ in a detail not shown here. Equal values may be shown once. The campaign covered roughly 220,000 compounds. About 16,000 (7.3%) were called active. The shares of active, inactive and inconclusive entries below differ from those in the screen. Calls come from the whole dose curve; as a rule, active = well fitted inhibition curve with a large enough effect (not every such curve was filed as active); inconclusive = small, poorly fitted or top-dose-only effect, or another doubt; inactive = no such curve, though single readings can be large or run the other way. Potencies of inconclusive entries are left out as doubtful fits.

Biological target: Aldehyde dehydrogenase 1A1 (Homo sapiens) (UniProt P00352)
Experiment: qHTS Assay for Inhibitors of Aldehyde Dehydrogenase 1 (ALDH1A1);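 for activity, negative = inhibition: plate controls were no enzyme wells and a reference inhibitor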
Conditions: Purified ALDH1A1, NADH fluorescence, propionaldehyde substrate; series mostly up to 75.3 µM; activity, negative = inhibition: at the top concentration
Potency is the fitted concentration of half-maximal effect; tags give direction and shape of the fitted curve.

Sequence of UniProt P00352 (P00352 whole entry, looked up): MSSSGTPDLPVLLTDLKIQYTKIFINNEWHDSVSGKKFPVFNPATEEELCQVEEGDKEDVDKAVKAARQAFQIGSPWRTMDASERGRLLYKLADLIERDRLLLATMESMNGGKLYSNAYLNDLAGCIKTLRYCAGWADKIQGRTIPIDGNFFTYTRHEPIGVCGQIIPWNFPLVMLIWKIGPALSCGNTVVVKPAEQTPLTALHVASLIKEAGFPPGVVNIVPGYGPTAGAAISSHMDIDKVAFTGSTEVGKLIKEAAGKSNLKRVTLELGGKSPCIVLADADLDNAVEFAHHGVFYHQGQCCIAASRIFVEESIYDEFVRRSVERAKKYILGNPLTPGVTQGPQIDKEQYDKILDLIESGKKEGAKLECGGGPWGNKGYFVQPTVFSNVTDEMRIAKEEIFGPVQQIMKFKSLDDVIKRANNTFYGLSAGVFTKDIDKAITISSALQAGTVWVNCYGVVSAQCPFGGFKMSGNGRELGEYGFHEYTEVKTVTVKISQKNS

SMILES	Potency	activity, negative = inhibition
Cc1ccc(C(=O)/C=C/c2ccco2)c(O)c1	inconclusive [inhibitor, single point]	–
O=C(c1csnn1)N1CCC2(CC1)CN(c1ccccn1)C2	inconclusive [inhibitor, partial curve]	–
CCOc1cc(CNCC(C)C)cc(Cl)c1OCc1ccccc1	inconclusive [inhibitor, single point]	–
Cc1nn(C)c(Sc2ccccc2N)c1[N+](=O)[O-]	active: 3.98 µM	–
COc1cc2nc(C3CCC3)n(NC(=O)c3ccco3)c(=O)c2cc1OC	inconclusive [inhibitor, partial curve]	–
CCc1cc2c(nc1CC)CCN(CC/C(C)=N/O[C@@H](C)c1cn([C@H](CO)Cc3ccccc3)nn1)C2	–	inactive: -5.28% [at 13.5 µM] and inactive: -0.856% [at 13.5 µM]
CCn1c(SCc2cc(=O)n3ccsc3n2)nc2ccccc21	–	inactive: 9.12%
CNC(=O)c1ccc(-c2sc3nc(N4CCOCC4)c4c(c3c2N)CCCC4)o1	inconclusive [inhibitor, partial curve]	–
COc1ccc(OCC(=O)N/N=c2\oc3c(OC)cccc3cc2C(N)=O)cc1	–	inactive: 12.4%
Cc1cccc(-c2nnc(SCC(=O)N3c4ccccc4CCc4ccccc43)n2C)c1	active: 11.2 µM	–
c1ccc(N2CCN(c3nnnn3-c3ccccc3)CC2)cc1	inconclusive [inhibitor, partial curve]	–
COCCN1C(=O)C(=O)/C(=C(/O)c2cccc(OC)c2)C1c1ccco1 (centres undefined)	–	inactive: 1.15%
Cc1ccc(C)c(N2CCN(C(=S)Nc3ccc4nc(N5CCN(C)CC5)cc(C)c4c3)CC2)c1	–	inactive: -6.55%
C(=N\N1CCN(c2ccccn2)CC1)/C1=C(N2CCOCC2)C(=C/c2ccccc2)/CC1	active: 8.91 µM	–
O=C(CSc1nnc2scc(-c3ccccc3)n12)Nc1ccc2c(c1)OCCO2	active: 15.8 µM	–
Nc1nc(SCC(=O)Nc2ccccc2Sc2ccccc2)n[nH]1	inconclusive [inhibitor, single point]	–
CCOC(=O)c1cccc(S(=O)(=O)N(CCO)Cc2cc3cc(OC)ccc3[nH]c2=O)c1	inconclusive [inhibitor, partial curve]	–
O=c1c2ccccc2nc(SCc2cn3ccsc3n2)n1-c1ccccc1F	inconclusive [inhibitor, partial curve]	–
N/C(Cc1ccc([N+](=O)[O-])cc1)=N\OC(=O)COc1ccc2ccccc2c1	inconclusive [inhibitor, single point]	–
O=C(NCCC1=CCCCC1)c1ccc(F)c(S(=O)(=O)N2CCOCC2)c1	inconclusive [inhibitor, partial curve]	–
CC1(C)Cc2nc3nc(SCC(=O)NCc4ccccc4)n(-c4ccccc4)c(=O)c3cc2CO1	active: 3.55 µM	–
COCCc1ccc(OCC(O)CNC(C)C)cc1 (centres undefined)	inactive	–
CC(C)CCN(C(=S)NC(=O)C1CCCCC1)c1c(N)n(Cc2ccccc2)c(=O)[nH]c1=O	active: 25.1 µM	–
CCn1c(SCC(=O)OC(C)C)nnc1-c1ccccc1OC	–	inactive: 5.8%
Cc1cccc(NC(=O)CSc2n[nH]c(-c3ccncc3)n2)c1	–	inactive: 0.219%

SMILES	Potency	activity, negative = inhibition
CN(C)S(=O)(=O)c1ccc(Cl)c(NC(=O)COC(=O)CN2C(=O)NC(C)(C)C2=O)c1	inconclusive [inhibitor, single point]	–
N#Cc1c(NC(=O)c2ccc(Cn3cc(Br)cn3)o2)sc2c1CCCCCC2	inconclusive [inhibitor, partial curve]	–
O=[N+]([O-])/C=C/c1cn(Cc2ccccc2)c2ccccc12	active: 15.8 µM	–
O=C1N=c2ccccc2=C1c1sc(=S)n(CC2CCCO2)c1O (centres undefined)	–	inactive: -13.5%
O=C(c1cc(-c2ccc(Cl)c(Cl)c2)on1)N1CCCC1	–	inactive: 13.2%
Cc1nnc(NC(=O)CSc2nc(C(C)C)nc3sc(C)c(C)c23)s1	inconclusive [inhibitor, single point]	–
COc1cc(OC)c(-n2cc(-c3ccc(Cl)cc3)[nH]c2=O)cc1Cl	inconclusive [inhibitor, single point]	–
COC(=O)c1ccc(CSc2ncnc3c2nnn3-c2ccc(F)cc2)o1	–	inactive: -13%
CSc1nncc(-c2ccc(F)c(F)c2)n1	inconclusive [inhibitor, full curve, poor fit]	–
CCN(CC)S(=O)(=O)c1c(OC)cc(C)c(Cl)c1C	–	inactive: 5.02%
COc1ccc(-n2c(SCC(=O)N3CCc4ccccc43)nnc2-c2c[nH]c3ccccc23)cc1	inconclusive [inhibitor, single point]	–
CCN(CC)S(=O)(=O)c1ccc(S(=O)(=O)N(Cc2ccccn2)Cc2ccco2)cc1	active: 1.78 µM	–
O=C(O)C1CC=CCC1C(=O)N1CC=C(c2ccccc2)CC1 (centres undefined)	inconclusive [inhibitor, single point]	–
CC1N/C(=C\C(=O)c2ccccc2)N(O)C1(C)C (centres undefined)	–	inactive: -2.52%
COc1cccc(C(=O)Nc2nc3c(s2)CN(C)CC3)c1	–	inactive: -3.49%
O=C(CSc1nncs1)N1c2ccccc2Sc2ccccc21	active: 10 µM	–
O=C(CSc1nnc(SCc2cccc3ccccc23)s1)N=Nc1c(O)[nH]c2ccccc12	inconclusive [inhibitor, partial curve, poor fit]	–
COc1ccc(CNc2ncncc2-c2ccc(N(C)C)cc2)c(OC)c1	inconclusive [inhibitor, partial curve]	–
O=S(=O)(c1ccccc1F)N1CCN(CC(O)c2ccccc2)CC1 (centres undefined)	–	inactive: -4.38%
CCCCC(=O)Nc1nnc(C)s1	–	inactive: 11.4%
N#CCCn1c(=O)c(CCc2ccccc2)nc2cnc(N3CCOCC3)nc21	inconclusive [inhibitor, partial curve]	–
Cc1ccc2nc(Cl)c(/C=N/Nc3nc(C)cc(C)n3)c(=O)n2c1	–	inactive: -9.68%
NNC(=O)c1ccc(CN2C(=O)c3cccc4cccc2c34)cc1	inconclusive [inhibitor, partial curve]	–
CN(C)C=Nc1ncc2c3ccccc3n(CCN(C)C)c2c1C#N	inconclusive [inhibitor, single point]	–
CC1(C)Oc2ccc(NC(=O)c3ccco3)cc2O1	–	inactive: -12.1%

SMILES	Potency	activity, negative = inhibition
Cc1cccnc1NC(=O)Nc1cccc2ccccc12	inconclusive [inhibitor, partial curve]	–
CCOC(=O)N1CCC(NC(=O)c2ccc3c(c2)sc2nc(-c4cccc(OC)c4)cn23)CC1	inconclusive [inhibitor, partial curve]	–
COC(=O)c1cc(Br)ccc1NC(=O)Nc1ccccc1	inconclusive [inhibitor, single point]	–
Cc1ccccc1N1CCN(C2=NC(=O)/C(=C\c3cccs3)S2)CC1	active: 15.8 µM	–
C=CCn1c(SCc2cc([N+](=O)[O-])cc3c2OCOC3)nc2cc(C(=O)O)ccc2c1=O	active: 10 µM	–
O=C(CCSc1ccccc1)NCCSCc1ccccc1	inconclusive [inhibitor, single point]	–
O=C(CCn1c(=O)c2sccc2n(CC(=O)OCc2ccccc2)c1=O)NCc1ccco1	inconclusive [inhibitor, single point]	–
Cc1cc(N(CCO)CCO)ccc1N=Nc1cc(F)ccc1F	–	inactive: 6.22%
O=C(CN(C1CCCCC1)S(=O)(=O)c1ccc(Cl)cc1)NCc1cccnc1	inconclusive [inhibitor, single point]	–
COCc1cc(C)nc(NCCO)c1C#N	inconclusive [inhibitor, single point]	–
Cc1ccc(OCCN(C)C(=O)CC2C(=O)NCCN2CC(C)(C)C)cc1 (centres undefined)	inconclusive [inhibitor, single point]	–
CCCCCCCCCCCCCCCCOCC(COP(=O)([O-])OCC[N+](C)(C)C)OC (centres undefined)	inactive	–
Clc1ccc(C2=CSC3=Nc4cccc5cccc(c45)N23)cc1	active: 7.94 µM	–
Clc1ccc(-c2nnc(COc3ncnc4sccc34)o2)cc1	–	inactive: -5.21%
CN1C(=C2C(=O)OC(C)(C)OC2=O)Sc2ccccc21	inconclusive [inhibitor, single point]	–
Cc1ccc(NC(=O)CN2c3cccc4cccc(c34)S2(=O)=O)cc1S(=O)(=O)N1CCOCC1	inconclusive [inhibitor, single point]	–
Cc1nn(CCc2nc(-c3ccco3)cs2)c2[nH]c(=O)cc(C(F)(F)F)c12	active: 2.51 µM	–
Cc1nnc(SCC(=O)NCc2ccco2)[nH]c1=O	inconclusive [inhibitor, single point]	–
COc1cc2c(cc1OC)-c1cc(NC3CCCCCCC3)nc(=O)n1CC2	inconclusive [inhibitor, partial curve]	–
CC(=O)OC1C(N2CCCCC2)c2c(ccc(/C=C/C(=O)N3CCCCC3)c2O)OC1(C)C (centres undefined)	–	inactive: 6.95%
COC(=O)c1ccc(COn2c(=O)c(C)[n+]([O-])c3ccccc32)cc1	inconclusive [inhibitor, single point]	–
O=C(c1cccc(F)c1)N1CCC2(CCCN(c3ncccn3)C2)CC1	–	inactive: 4.68%
Cc1ccc(Cl)cc1NC1=C/C(=N\S(=O)(=O)c2cccs2)c2ccccc2C1=O	inconclusive [inhibitor, full curve]	–
Cc1cc2c(C)cc(=O)[nH]c2cc1NC(=O)CCl	inconclusive [inhibitor, partial curve]	–
